These results are taken from PubChem BioAssay AID488969 (Vanderbilt High Throughput Screening Facility, 2010).

Whole data set: some 110,000 compounds, median “z-score” near -0.1, cut for the highest 2% near 2. The list shows a part of the results.

The assay concerns the target Metabotropic glutamate receptor 8 (Rattus norvegicus) (UniProt P70579). Put plainly: rat mGluR8 modulators via GIRK flux, primary screen, cell-based, thallium flux, HTS (AID 488969). The note with it: HEK293 rat mGluR8, GIRK (G protein-gated inwardly rectifying potassium channel) thallium flux, FluoZin2; at 10 µM; stronger effect = higher value; submaximal glutamate (EC20) added with thallium.
Chain of UniProt P70579 (P70579 whole entry, looked up): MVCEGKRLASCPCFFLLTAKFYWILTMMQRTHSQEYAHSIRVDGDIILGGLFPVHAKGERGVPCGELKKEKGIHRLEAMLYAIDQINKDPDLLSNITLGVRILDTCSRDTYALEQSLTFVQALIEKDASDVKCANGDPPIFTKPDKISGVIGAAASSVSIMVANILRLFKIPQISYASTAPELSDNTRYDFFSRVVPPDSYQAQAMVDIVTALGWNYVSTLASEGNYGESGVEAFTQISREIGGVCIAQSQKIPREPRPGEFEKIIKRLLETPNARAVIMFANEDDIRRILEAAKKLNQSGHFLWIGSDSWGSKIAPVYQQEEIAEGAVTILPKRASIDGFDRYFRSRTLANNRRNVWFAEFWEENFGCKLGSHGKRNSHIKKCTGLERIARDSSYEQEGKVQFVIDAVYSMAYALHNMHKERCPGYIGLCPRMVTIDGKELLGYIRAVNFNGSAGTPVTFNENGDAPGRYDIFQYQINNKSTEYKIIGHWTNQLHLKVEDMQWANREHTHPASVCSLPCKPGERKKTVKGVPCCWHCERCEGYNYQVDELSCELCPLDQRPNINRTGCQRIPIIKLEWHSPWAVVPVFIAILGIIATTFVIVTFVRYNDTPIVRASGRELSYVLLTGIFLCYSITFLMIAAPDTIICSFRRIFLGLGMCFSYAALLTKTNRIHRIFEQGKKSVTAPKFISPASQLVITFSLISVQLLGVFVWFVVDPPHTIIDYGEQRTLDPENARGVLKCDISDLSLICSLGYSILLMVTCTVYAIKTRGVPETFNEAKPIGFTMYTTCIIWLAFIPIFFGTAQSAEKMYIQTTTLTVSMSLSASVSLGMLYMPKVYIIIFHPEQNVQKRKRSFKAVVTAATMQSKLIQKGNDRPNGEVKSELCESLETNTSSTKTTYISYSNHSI
In turn, `C=CCNc1nc(-c2ccc(Cl)cc2)cs1` yielded a z-score of -0.104. Then `Cc1ccccc1C(=O)NNC(=O)CN1C(=O)c2ccccc2C1=O`, with -0.0438; and `Cc1cccc(OCCCC(=O)Nc2ccc(N3CCOCC3)cc2)c1`, with 0.308; and `COc1ccc(Cl)cc1NC(=O)C(=O)NC1CCCCCC1`, with 0.246. For the compound `O=[N+]([O-])c1cc(C(F)(F)F)ccc1NCCCCNS(=O)(=O)c1ccc(Cl)cc1`, the z-score is -0.137. Then `O=S(=O)(CCc1nc2ccccc2o1)c1ccc(Cl)cc1`, with 0.262; and `Cc1ccc(OCCCC(=O)Nc2nncs2)cc1`, with -0.0937; and `COc1cccc2c(=O)n(CC(=O)Nc3cccc(F)c3)ccc12`, with 0.0811. In the case of `CCCCCn1ccc(=O)c2c(C(F)(F)F)nccc21` it was -0.164.

On to `C1=C(c2cccc3ccccc23)N2CCN=C2S1`, for which the z-score was determined as 0.487. Then `CCCN1CCN(C(=O)Nc2ccc(C(=O)OCC)cc2)CC1`, with 0.101; and `CCC(=O)NCCN1CCN(C(=O)CC)CC1`, with 0.112. Then `O=C(CSc1nnc(-c2ccccn2)n1-c1ccccc1)Nc1ccc2c(c1)OCO2`, with -0.262.

For the compound `S=c1[nH]ncn1/N=C/c1cccc(Oc2ccccc2)c1`, the z-score was found to be 1.85. In the case of `Cc1cc2c(C)nc(N/N=C/c3ccccc3)nc2o1` it was -0.0883; in that of `COc1ccc(OC(=O)c2cc3ccccc3o2)cc1`, 0.125; in that of `CCC(=O)c1cn(CC(=O)OC)c2ccccc12`, 0.885. In turn, `COc1ccc(C2=NOC(C(=O)NCc3cccs3)C2)cc1` (stereo not given) displayed a z-score of -0.248. In the case of `NC(=O)CSc1nc(-c2ccccc2)c(-c2ccccc2)o1` it was -0.595. Then `O=C(c1cnn(C(=O)COc2ccc(Cl)cc2)c1)c1ccccc1O`, with -1.59; and `CC(Sc1nc2ccccc2s1)C(=O)Nc1ccc2c(c1)OCO2` (stereo not given), with -0.149.

With `CCCCC(=O)Nc1ccnc(-c2cccnc2)n1`, the z-score is -0.109. Then `COC(=O)CNC(=O)CN1C(=O)N(c2cccc(Cl)c2)C(N(O)C(=O)Nc2cccc(Cl)c2)C1(C)C` (stereo not given), with 0.365; and `O=C(NCc1ccco1)Nc1cccs1`, with -0.42; and `CSc1ccccc1C(=O)N1CCN(c2ccc(F)cc2)CC1`, with -0.0286. Then `COc1ccc(/C=N/Nc2ccc([N+](=O)[O-])cc2)cc1Cn1cc([N+](=O)[O-])cn1`, with -0.498; and `Cc1ccccc1C(=O)NC1CCN(CC(=O)Nc2c(C)cccc2C)CC1`, with 0.736; and `CN(C)C=NC1=NN(c2cccc(C(F)(F)F)c2)CC1`, with -0.113. In the case of `CN(C=O)CP(=O)(O)CN1CCCCC1` it was -0.279. Take `CCOc1ccccc1NC(=O)Cc1c(F)cccc1Cl`: the z-score is -0.491. In the case of `CCOC(=O)c1ccc(NC(=O)CNS(=O)(=O)c2ccccc2)cc1` it was -0.133; in that of `Cc1sc2ncnc(SCC(=O)N3CCCC3)c2c1C`, 0.342; in that of `COc1ccc2cc(/C=C/C(=O)c3ccco3)c(Cl)nc2c1`, -0.845. In the case of `CCOc1ccc(NC(=O)c2cc3c(=O)n(C)c4ccccc4c3n2C)cc1` it was -0.678; in that of `COc1cc2c(cc1NC(=O)c1ccncc1)oc1ccccc12`, -0.383. In the case of `COc1ccc(NC(=S)N(CCN(C)C)C(C)c2ccco2)cc1` (stereo not given) it was -0.233. In turn, `Cc1nnsc1Sc1cccc(C(F)(F)F)c1` had a z-score of 0.0904.

In turn, `Cc1ccc(C)c(NCCC#N)c1` had a z-score of 0.144. In the case of `COc1ccc(C)cc1N(C(=O)c1ccccc1)c1nc2ccccc2s1` it was -0.344.

Consider `Cc1c(C(=O)Nc2ccc(Oc3ccccc3)cc2)sc2nc3n(c(=O)c12)CCC3`, for which the z-score amounted to 1.64.

In turn, `COc1cnc(SCC(=O)O)[nH]c1=O` gave a z-score of -0.243.

On to `CCOC(=O)N1CCC2(CC1)C(C#N)=C(N)Oc1c2c(C)nn1-c1cccc(Cl)c1`, for which the z-score was -0.473.

`COC(=O)COc1ccc(Oc2cc(C)nc(SC)n2)nn1`: the z-score is -0.159. Then `CCNC(=O)/C(=C/c1ccco1)NC(=O)/C=C/c1ccccc1`, with -0.13; and `O=C(COc1ccccc1)Nc1cccc(-c2nc3ccccc3[nH]2)c1`, with -0.566. Turning to `COCCCNCC(=O)c1c(N)n(Cc2ccccc2)c(=O)n(C)c1=O`, the z-score was -0.0535. In the case of `Cc1cc(/C=N/NC(=O)c2cccs2)c(C)n1-c1ccccc1` it was -0.317; in that of `COc1cccc(C(=O)NC(Cc2ccccc2)c2ccc3c(c2)OCCCO3)c1` (stereo not given), -0.279. The compound `CC(=O)Nc1ccccc1N(C)S(=O)(=O)c1ccc(C)cc1` displayed a z-score of 0.334. Then `S=C(Nc1ccc(Cl)cc1Cl)NC1CCN(Cc2ccccc2)CC1`, with 0.338; and `CCC(C)(C)n1nnnc1C(c1cc2cc3c(cc2[nH]c1=O)OCO3)N1CCCCC1` (stereo not given), with -0.327.

The compound `N/C(=N\OC(=O)c1cccc(Cl)c1)c1cccnc1` had a z-score of 0.314.

As to `O=C1c2ccccc2C(=O)N1CCc1csc(-c2ccc(F)cc2)n1`, the z-score was -0.208. In the case of `CC1(C)CC(=O)C(C=Nc2ccc3cn[nH]c3c2)=C(O)C1` it was -1.3. Then `N=c1c2c3c(sc2nc2n1CCCCC2)CCCC3`, with 1.56. In the case of `Cc1cc2nnc(SCC(=O)OC(C)C)n2c2ccccc12` it was -2.26; in that of `O=C1N2CCCc3cccc(c32)C12Nc1ccccc1S2` (stereo not given), 0.109. In turn, `CCOc1ccc(NC(=O)c2cnccn2)cc1` returned a z-score of -0.73. `CC1CCN(C(=O)c2cc3nc(-c4ccccc4)cc(-c4ccccc4)n3n2)CC1`: the z-score was -0.0035.

With `COC(=O)CCC(=O)NNC(=O)c1ccc(Cl)cc1Cl`, the z-score was found to be 0.047. Then `Brc1ccc(OCCOCCOc2cccc3cccnc23)cc1`, with -0.0876; and `O=C(c1ccccc1S(=O)(=O)NCc1ccccc1)N1CCCC1`, with 0.32; and `O=C(CCN1C(=O)c2ccccc2C1=O)Nc1cccc(F)c1`, with 0.534. `CCCNC(=O)N1CCN(c2nc(C(C)C)c3c(c2C#N)CC(C)(C)OC3)CC1`: the z-score is -0.42. Then `Cc1ccc(Sc2ncccc2COC(=O)Nc2c(C)cccc2C)cc1`, with -0.116. On to `Cc1nnc(NC(=O)c2oc3cc(C)c(C)cc3c2C)s1`, for which the z-score was -0.347. In the case of `Cc1cc(NC(=O)c2cccc(S(=O)(=O)N3CCCCCC3)c2)n(-c2ccccn2)n1` it was -0.374; in that of `CNc1nc(C)cc(C)c1S(=O)(=O)c1ccc(C)cc1`, -0.246; in that of `Cc1oc(-c2cccs2)nc1CS(=O)CC(=O)NCCCN1CC(C)CC(C)C1` (stereo not given), -0.771. Take `CC(C)CCOc1ccc(Cl)cc1CN1CCOCC1`: the z-score was -0.105. Take `COC(=O)Cc1cc(=O)n(-c2ccccc2)[nH]1`: the z-score is -0.148. In the case of `COc1ccc(NC(=S)N2CCN(Cc3ccco3)CC2)c(OC)c1`, the z-score was -0.136. In the case of `COc1cc(S(=O)(=O)N2CCCCCC2)ccc1Cl` it was -2.81; in that of `C=CCOC(=O)CSCC(NC(=O)OC(C)(C)C)C(=O)OCC` (stereo not given), -0.0461; in that of `O=c1c2ccccc2nc(N/N=C/c2ccccc2)n1O`, 1.13. Then `Cc1ccccc1-c1coc2cc(O)ccc2c1=O`, with 1.47; and `CCc1nc2ccccc2n1CC(O)COc1ccc(NC(C)=O)cc1` (stereo not given), with -0.194; and `O=C(NCc1cccs1)c1ccc(N2CCCC2=O)cc1`, with 0.148.

The compound `Cc1ccccc1NS(=O)(=O)c1ccc(N2CCCC2=O)cc1` had a z-score of 0.383. Then `Cc1ccc(CSCC(=O)Nc2ccc(F)cc2)cc1`, with 0.284; and `COC(=O)c1[nH]c2ccc(Cl)cc2c1NC(=O)c1ccccc1[N+](=O)[O-]`, with -0.463; and `CCOc1ccc(NC(=O)c2ccccc2OCC(=O)c2ccc(C)cc2)cc1`, with -0.0908. In the case of `CCCCc1nc2ccccc2c(N)c1CCC` (tested in a mixture with another compound) it was -2.59.

In the case of `Cn1c(SCC(=O)N2CCCCC2)nnc1-c1ccc(S(=O)(=O)N2CCOCC2)cc1`, the z-score was -0.416.

Regarding `CC(C)CN(CCOc1cccc(N2C(=O)C3=C(CCCC3)C2=O)c1)CC(C)C`, the z-score is -0.0907. `O=C(NCC(c1cccnc1)N1CCN(c2ccccc2)CC1)C1CCCCC1` (stereo not given) returned a z-score of -0.559. Then `O=c1c2c(ncn1Cc1ccccc1)nc1n2CCC1`, with -0.427; and `O=C(NC1CCCCC1)C(c1ccc2ncccc2c1)N(Cc1ccco1)C(=O)c1ccc2c(c1)OCCO2` (stereo not given), with -0.303; and `O=C(Nc1ccc(F)cc1F)c1ccc(-n2cncn2)nc1`, with -0.0309. In the case of `Cc1nn(Cc2ccc(Cl)cc2Cl)c(C)c1NC(=O)C1C2CCC(O2)C1C(=O)O` (stereo not given) it was 0.0518. The compound `O=C(/C=C/c1ccccc1)NCCc1ccc2c(c1)OCCO2` returned a z-score of 0.153. In the case of `Cc1ccc2ncnc(NCCC(=O)O)c2c1` it was 0.617; in that of `COc1cccc(C(=O)NCc2ccc(N3CCN(C(=O)OC(C)(C)C)CC3)cc2)c1`, 0.23; in that of `CCOc1ccc(C(C)C)cc1S(=O)(=O)n1nc(C)cc1C`, -0.0606. In the case of `CCCCOc1ccc(CSc2nncn2N)cc1` it was -0.307; in that of `CCCCNc1oc(-c2ccc(OC)cc2)nc1S(=O)(=O)c1ccccc1`, 0.17; in that of `Cc1ccc(C)c(OCCn2cc(/C=C(\C#N)C(=O)NCc3ccco3)c3ccccc32)c1`, -0.227.

Take `Cc1ccc(-c2cccc(NC(=O)C3C4C=CC(C4)C3C(=O)O)c2)o1` (stereo not given): the z-score was -0.472. Then `C=CCOc1cccc(CNn2cn[nH]c2=S)c1`, with -0.179; and `COc1ccc(OC)c(NC(=O)CNC(=O)Cn2ccc3ccccc3c2=O)c1`, with -0.0797.

For the compound `CC(C)(C)c1nn(-c2ccccc2)c2[nH]c(=O)c(CNCc3ccco3)cc12`, the z-score is -0.626. On to `COc1ccc(/C=N/Nc2cc(C)nc(-n3nc(C)cc3C)n2)c(OC)c1`, for which the z-score was -0.205. Compound `CCn1c(CNC(=O)c2cccc(C)c2)nnc1SCC(=O)NC1CCCCC1C` (stereo not given) showed a z-score of 0.161. Then `CC(=N\O)/C(CN(C)C)=N/O`, with -0.301; and `N#Cc1c(N2CCN(C(=O)c3ccco3)CC2)nc(-c2ccccc2)c2c1CCCC2`, with -0.665; and `CC(C)CCN(CCC(C)C)C/C(O)=C(\C#N)c1nc(-c2ccccc2)cs1`, with -0.448. Then `CCCN(CCC)CCNS(=O)(=O)c1ccc2c(c1)CCN2C(=O)C1CCC1`, with -0.201; and `CNC(=O)c1ccccc1NC(=O)c1ccc(C)c(S(=O)(=O)N2CCCCC2)c1`, with -0.727; and `Cc1ccc(C2(CC(=O)O)CCOC(C)(C)C2)cc1` (stereo not given), with 0.918. Then `COc1ccc(N2CCN(C(CNC(=O)c3ccco3)c3cccnc3)CC2)cc1` (stereo not given), with -0.782; and `Nc1nnnn1/N=C/c1cccc(O)c1`, with -0.0397.

On to `CCOc1ccc(N(C(=O)/C=C/C(=O)Nc2cc(C)on2)C(C(=O)NC2CCCC2)c2ccccc2C)cc1` (stereo not given), for which the z-score was -2.8. Then `CC1(C)CC(=O)C2=C(C1)c1c(ccc3ncccc13)NC2c1cccs1` (stereo not given), with -0.648; and `COc1ccc(OC(=O)CN2C(=O)C3C4CCC(C4)C3C2=O)cc1` (stereo not given), with -0.21. In the case of `O=C1CCCCCN1C(=O)c1cccc(C(=O)N2CCCCCC2=O)c1` it was 0.313.
